The list shows a part of the results.
Tests used:
Experiment in all cases: glycan array binding signal (z-score within array); higher = stronger binding
Details in all cases: glycan notation: IUPAC condensed, linker removed
Fuc(a1-2)Gal = biological target: Fuc(a1-2)Gal
Procedure, shortened: (§1)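 Columns mapping to the same glycan were averaged after glycan names were converted to IUPAC-condensed notation. The data come from 3228 arrays in the Consortium for Functional Glycomics database, limited to those with an available protein sequence. Binding is reported as a within-array Z-score averaged across arrays of one protein sequence and across linkers.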

Fuc(a1-2)Gal(b1-3)GalNAc = biological target: Fuc(a1-2)Gal(b1-3)GalNAc
Procedure, shortened: as §1

[1] = biological target: Fuc(a1-2)Gal(b1-3)GalNAc(a1-3)[Fuc(a1-2)]Gal(b1-4)Glc
Procedure, shortened: as §1

[2] = biological target: Fuc(a1-2)Gal(b1-3)GalNAc(a1-3)[Fuc(a1-2)]Gal(b1-4)GlcNAc
Procedure, shortened: as §1

[3] = biological target: Fuc(a1-2)Gal(b1-3)GalNAc(b1-3)Gal
Procedure, shortened: as §1

[4] = biological target: Fuc(a1-2)Gal(b1-3)GalNAc(b1-3)Gal(a1-4)Gal(b1-4)Glc
Procedure, shortened: as §1

[5] = biological target: Fuc(a1-2)Gal(b1-3)GalNAc(b1-4)[Neu5Ac(a2-3)]Gal(b1-4)Glc
Procedure, shortened: as §1

Fuc(a1-2)Gal(b1-3)GlcNAc = biological target: Fuc(a1-2)Gal(b1-3)GlcNAc
Procedure, shortened: as §1

[6] = biological target: Fuc(a1-2)Gal(b1-3)GlcNAc(b1-2)Man(a1-3)[Fuc(a1-2)Gal(b1-3)GlcNAc(b1-2)Man(a1-6)]Man(b1-4)GlcNAc(b1-4)GlcNAc
Procedure, shortened: as §1

[7] = biological target: Fuc(a1-2)Gal(b1-3)GlcNAc(b1-2)Man(a1-3)[Fuc(a1-2)Gal(b1-3)GlcNAc(b1-2)Man(a1-6)]Man(b1-4)GlcNAc(b1-4)[Fuc(a1-6)]GlcNAc
Procedure, shortened: as §1

[8] = biological target: Fuc(a1-2)Gal(b1-3)GlcNAc(b1-3)Gal(b1-4)Glc
Procedure, shortened: as §1

[9] = biological target: Fuc(a1-2)Gal(b1-3)GlcNAc(b1-3)GalNAc
Procedure, shortened: as §1

[10] = biological target: Fuc(a1-2)Gal(b1-3)GlcNAc(b1-3)[Fuc(a1-2)Gal(b1-3)GlcNAc(b1-6)]GalNAc
Procedure, shortened: as §1

[11] = biological target: Fuc(a1-2)Gal(b1-3)GlcNAc(b1-3)[Gal(b1-4)GlcNAc(b1-6)]Gal(b1-4)Glc
Procedure, shortened: as §1

[12] = biological target: Fuc(a1-2)Gal(b1-3)GlcNAc(b1-3)[Neu5Ac(a2-6)Gal(b1-4)GlcNAc(b1-6)]Gal(b1-4)Glc
Procedure, shortened: as §1

[13] = biological target: Fuc(a1-2)Gal(b1-3)GlcNAc6S
Procedure, shortened: as §1

[14] = biological target: Fuc(a1-2)Gal(b1-3)[Fuc(a1-4)]GlcNAc
Procedure, shortened: as §1

[15] = biological target: Fuc(a1-2)Gal(b1-3)[Fuc(a1-4)]GlcNAc(b1-2)Man(a1-3)[Fuc(a1-2)Gal(b1-3)[Fuc(a1-4)]GlcNAc(b1-2)Man(a1-3)]Man(b1-4)GlcNAc(b1-4)GlcNAc
Procedure, shortened: as §1

[16] = biological target: Fuc(a1-2)Gal(b1-3)[Fuc(a1-4)]GlcNAc(b1-2)Man(a1-3)[Fuc(a1-2)Gal(b1-3)[Fuc(a1-4)]GlcNAc(b1-2)Man(a1-6)]Man(b1-4)GlcNAc(b1-4)[Fuc(a1-6)]GlcNAc(b1-4)[Fuc(a1-6)]GlcNAc
Procedure, shortened: as §1

[17] = biological target: Fuc(a1-2)Gal(b1-3)[Fuc(a1-4)]GlcNAc(b1-3)[Fuc(a1-3)[Gal(b1-4)]GlcNAc(b1-6)]Gal(b1-4)Glc
Procedure, shortened: as §1

[18] = biological target: Fuc(a1-2)Gal(b1-3)[Fuc(a1-4)]GlcNAc(b1-3)[Gal(b1-4)GlcNAc(b1-6)]Gal(b1-4)Glc
Procedure, shortened: as §1

[19] = biological target: Fuc(a1-2)Gal(b1-4)Fuc(a1-3)]GlcNAc(b1-2)Man(a1-3)[Fuc(a1-2)Gal(b1-4)[Fuc(a1-3)]GlcNAc(b1-2)Man(a1-6)]Man(b1-4)GlcNAc(b1-4)GlcNAc
Procedure, shortened: as §1

Fuc(a1-2)Gal(b1-4)Glc = biological target: Fuc(a1-2)Gal(b1-4)Glc
Procedure, shortened: as §1

Fuc(a1-2)Gal(b1-4)Glc6S = biological target: Fuc(a1-2)Gal(b1-4)Glc6S
Procedure, shortened: as §1

Fuc(a1-2)Gal(b1-4)GlcNAc = biological target: Fuc(a1-2)Gal(b1-4)GlcNAc
Procedure, shortened: as §1

[20] = biological target: Fuc(a1-2)Gal(b1-4)GlcNAc(b1-2)Man
Procedure, shortened: as §1

[21] = biological target: Fuc(a1-2)Gal(b1-4)GlcNAc(b1-2)Man(a1-3)[Fuc(a1-2)Gal(b1-4)GlcNAc(b1-2)Man(a1-6)]Man(b1-4)GlcNAc(b1-4)GlcNAc
Procedure, shortened: as §1

[22] = biological target: Fuc(a1-2)Gal(b1-4)GlcNAc(b1-2)Man(a1-3)[Fuc(a1-2)Gal(b1-4)GlcNAc(b1-2)Man(a1-6)]Man(b1-4)GlcNAc(b1-4)[Fuc(a1-6)]GlcNAc
Procedure, shortened: as §1

[23] = biological target: Fuc(a1-2)Gal(b1-4)GlcNAc(b1-2)[Fuc(a1-2)Gal(b1-4)GlcNAc(b1-4)]Man(a1-3)[Fuc(a1-2)Gal(b1-4)GlcNAc(b1-2)Man(a1-6)]Man(b1-4)GlcNAc(b1-4)GlcNAc
Procedure, shortened: as §1

[24] = biological target: Fuc(a1-2)Gal(b1-4)GlcNAc(b1-3)Gal(b1-4)GlcNAc
Procedure, shortened: as §1

[25] = biological target: Fuc(a1-2)Gal(b1-4)GlcNAc(b1-3)Gal(b1-4)GlcNAc(b1-2)Man(a1-3)[Fuc(a1-2)Gal(b1-4)GlcNAc(b1-3)Gal(b1-4)GlcNAc(b1-2)Man(a1-6)]Man(b1-4)GlcNAc(b1-4)GlcNAc
Procedure, shortened: as §1

[26] = biological target: Fuc(a1-2)Gal(b1-4)GlcNAc(b1-3)Gal(b1-4)GlcNAc(b1-3)Gal(b1-4)GlcNAc
Procedure, shortened: as §1

[27] = biological target: Fuc(a1-2)Gal(b1-4)GlcNAc(b1-3)GalNAc
Procedure, shortened: as §1

[28] = biological target: Fuc(a1-2)Gal(b1-4)GlcNAc(b1-3)[Fuc(a1-2)Gal(b1-4)GlcNAc(b1-6)]GalNAc
Procedure, shortened: as §1

[29] = biological target: Fuc(a1-2)Gal(b1-4)GlcNAc(b1-3)[Fuc(a1-3)[Gal(b1-4)]GlcNAc(b1-6)]Gal(b1-4)Glc
Procedure, shortened: as §1

[30] = biological target: Fuc(a1-2)Gal(b1-4)GlcNAc(b1-6)GalNAc
Procedure, shortened: as §1

[31] = biological target: Fuc(a1-2)Gal(b1-4)GlcNAc6S
Procedure, shortened: as §1

[32] = biological target: Fuc(a1-2)Gal(b1-4)[Fuc(a1-3)]GlcNAc
Procedure, shortened: as §1

[33] = biological target: Fuc(a1-2)Gal(b1-4)[Fuc(a1-3)]GlcNAc(b1-2)Man(a1-3)[Fuc(a1-2)Gal(b1-4)[Fuc(a1-3)]GlcNAc(b1-2)Man(a1-6)]Man(b1-4)GlcNAc(b1-4)[Fuc(a1-6)]GlcNAc
Procedure, shortened: as §1

[34] = biological target: Fuc(a1-2)Gal(b1-4)[Fuc(a1-3)]GlcNAc(b1-2)[Fuc(a1-2)Gal(b1-4)[Fuc(a1-3)]GlcNAc(b1-4)]Man(a1-3)[Fuc(a1-2)Gal(b1-4)[Fuc(a1-3)]GlcNAc(b1-2)Man(a1-6)]Man(b1-4)GlcNAc(b1-4)GlcNAc
Procedure, shortened: as §1

[35] = biological target: Fuc(a1-2)Gal(b1-4)[Fuc(a1-3)]GlcNAc(b1-3)Gal(b1-4)[Fuc(a1-3)]GlcNAc
Procedure, shortened: as §1

[36] = biological target: Fuc(a1-2)Gal(b1-4)[Fuc(a1-3)]GlcNAc(b1-3)Gal(b1-4)[Fuc(a1-3)]GlcNAc(b1-3)Gal(b1-4)[Fuc(a1-3)]GlcNAc
Procedure, shortened: as §1

[37] = biological target: Fuc(a1-2)Gal(b1-4)[Fuc(a1-3)]GlcNAc(b1-3)GalNAc
Procedure, shortened: as §1

[38] = biological target: Fuc(a1-2)Gal(b1-4)[Fuc(a1-3)]GlcNAc(b1-3)[Neu5Ac(a2-6)Gal(b1-4)GlcNAc(b1-6)]Gal(b1-4)Glc
Procedure, shortened: as §1

[39] = biological target: Fuc(a1-2)Gal3S(b1-4)GlcNAc
Procedure, shortened: as §1

B1: GSL-I (Griffonia simplicifolia) (protein)
chain: FNLPNFWSDVKDNIIFQGDANTTAGTLQLCKTNQYGNPLQYRAGRALYSDPVQLWDNKTGSVASFYTEFTFFLKITGDGPADGLAFFLAPPDSDVKDAGAYLGLFNKSTATQPSKNQVVAVEFDTWKNTDFPEPSYRHIGINVNSIVSVATKRWEDSDIFSGKIATARISYDGSAKILTVVLSYPDGADYILSHSVDLSKNLPNPIRVGISASTGANQFLTVYVLSWRFSSALQSTSVNAAMGPEIIRTVV
Fuc(a1-2)Gal
  glycan array binding signal (z-score): -0.177
Fuc(a1-2)Gal(b1-3)GalNAc
  glycan array binding signal (z-score): -0.168
[1]
  glycan array binding signal (z-score): -0.16
[2]
  glycan array binding signal (z-score): -0.242
[3]
  glycan array binding signal (z-score): -0.073
[4]
  glycan array binding signal (z-score): -0.244
[5]
  glycan array binding signal (z-score): -0.173
Fuc(a1-2)Gal(b1-3)GlcNAc
  glycan array binding signal (z-score): -0.237
[6]
  glycan array binding signal (z-score): 0.281
[7]
  glycan array binding signal (z-score): -0.103
[8]
  glycan array binding signal (z-score): -0.052
[9]
  glycan array binding signal (z-score): -0.157
[10]
  glycan array binding signal (z-score): -0.061
[11]
  glycan array binding signal (z-score): -0.207
[12]
  glycan array binding signal (z-score): -0.246
[13]
  glycan array binding signal (z-score): -0.187
[14]
  glycan array binding signal (z-score): 0.027
[15]
  glycan array binding signal (z-score): 0.059
[16]
  glycan array binding signal (z-score): 0.059
[17]
  glycan array binding signal (z-score): 0.085
[18]
  glycan array binding signal (z-score): -0.08
[19]
  glycan array binding signal (z-score): 0.367
Fuc(a1-2)Gal(b1-4)Glc
  glycan array binding signal (z-score): -0.208
Fuc(a1-2)Gal(b1-4)Glc6S
  glycan array binding signal (z-score): -0.02
Fuc(a1-2)Gal(b1-4)GlcNAc
  glycan array binding signal (z-score): -0.213
[20]
  glycan array binding signal (z-score): -0.266
[21]
  glycan array binding signal (z-score): 0.12
[22]
  glycan array binding signal (z-score): -0.072
[23]
  glycan array binding signal (z-score): -0.104
[24]
  glycan array binding signal (z-score): -0.241
[25]
  glycan array binding signal (z-score): -0.037
[26]
  glycan array binding signal (z-score): -0.239
[27]
  glycan array binding signal (z-score): -0.179
[28]
  glycan array binding signal (z-score): 0.044
[29]
  glycan array binding signal (z-score): -0.164
[30]
  glycan array binding signal (z-score): -0.21
[31]
  glycan array binding signal (z-score): -0.157
[32]
  glycan array binding signal (z-score): 0.006
[33]
  glycan array binding signal (z-score): -0.155
[34]
  glycan array binding signal (z-score): -0.155
[35]
  glycan array binding signal (z-score): -0.002
[36]
  glycan array binding signal (z-score): 0.044
[37]
  glycan array binding signal (z-score): 0.177
[38]
  glycan array binding signal (z-score): -0.212
[39]
  glycan array binding signal (z-score): -0.091

From the supplement of paper PMC8728848
